# Data from the supplement of paper PMC3334620.
# Over roughly 33,000 sequences, “E-score (-0.5 to 0.5)” has its median near -0.016; the highest 2% begin near 0.31. The list shows a part of the results.
# Target: Cst6 (UniProt P40535)
# Experiment: PBM E-score (8-mer binding enrichment) (E-score (-0.5 to 0.5)); higher = stronger / more preferred TF binding; most listed sequences are background and not binding sites
# Conditions: protein concentration: 200 nM; construct: GST-DNA-binding domain
# Method in brief: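 For each ungapped eight-base word taken together with its reverse complement, the Universal PBM Analysis Suite assigned an E-score. Binding data came from GST-tagged yeast transcription factors, applied at about 100-200 nM, on universal all-10-mer Agilent arrays made double-stranded by primer extension. Fluorescent anti-GST marked bound protein, and scans were normalised with masliner.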
row,Sequence,PBM E-score
1,CACATGGG,-0.234
2,AGACCGAT,-0.0796
3,GTTGGGGA,-0.141
4,AGTGGGTA,-0.282
5,CAAATTAG,0.147
6,AAATGTTA,0.182
7,GGGCTGCA,-0.219
8,GGCTGTAC,-0.17
9,ATCGACCC,0.00171
10,AAGGATGG,0.0503
11,GGTAATGA,0.213
12,AGGTCAAC,-0.0368
13,CCTGGCCA,-0.276
14,ATCGTCGA,-0.0032
15,GCTAGAAC,-0.216
16,CGTCCGCC,-0.111
17,GATGCGGA,0.0439
18,CCTGGAAC,-0.0991
19,GGGTGCAC,-0.191
20,CCAGATCA,0.181
21,GTCTCTCA,-0.0353
22,ATAATACC,0.147
23,CTGATTTC,0.195
24,CAGGGCCA,-0.213
25,AACGCTAT,0.00602

row,Sequence,PBM E-score
1,ACGATCCT,-0.118
2,CTCAGCCA,-0.148
3,TAATAAAA,0.316
4,GCCAAAAC,0.00644
5,CACACCCG,-0.0928
6,CGAATGCG,0.03
7,ACTGTCCC,-0.222
8,AAGAGGGC,-0.0691
9,TAGTCGCA,-0.167
10,AGACAGTC,-0.214
11,AACTGAAG,0.0725
12,TCAAGGCA,-0.152
13,GCAATGGC,-0.239
14,CCTCGGAG,-0.085
15,AGCCAGAA,-0.0481
16,AGGTCCAA,-0.272
17,CAGGATAA,0.0316
18,AACGGATT,0.269
19,CAATATTC,-0.0581
20,CCAGGAAC,-0.362
21,ATGCGGGG,-0.0792
22,CTCATTTA,0.141
23,GCTTGAAC,0.0764
24,CATCAGAG,0.129
25,CCGGCGGA,-0.0852

row,Sequence,PBM E-score
1,ACCGATAG,-0.104
2,CCGGACCG,-0.165
3,TACAAAGA,0.0617
4,AGCAATCC,-0.179
5,ACGTTGTA,0.141
6,GGGACACC,-0.314
7,CAAGTGCC,0.0401
8,CTCGGGAC,-0.143
9,ACTGGGCG,-0.235
10,ACGGTGCA,-0.0869
11,TACTGTGA,0.00812
12,ATAACCAG,0.144
13,ATCGCCAG,-0.0857
14,AAGCGTAG,-0.223
15,AATGAGAT,0.231
16,CCAAAGAC,-0.095
17,TAAGTCCA,-0.0847
18,ACACAAGT,-0.0442
19,ATTCTCTA,0.155
20,CCAGATGC,-0.189
21,GACGCCCC,-0.00249
22,ATATCAGA,0.179
23,TCCTCCGA,-0.395
24,GTAGATAA,0.218
25,CGTGTTTC,0.00951

row,Sequence,PBM E-score
1,TCGCCGAA,0.185
2,CTTAAGTA,0.0395
3,CCAATTCA,0.126
4,GGTAAATA,0.0885
5,ACGGAGGG,-0.145
6,CCTGTACA,-0.0547
7,AGTTACCA,-0.0424
8,AGCATGGC,-0.136
9,CATGTGCA,-0.0964
10,CGCAAGAC,-0.142
11,GCGGGATA,-0.0401
12,AGGAGACG,-0.174
13,CCACACAG,-0.0337
14,ATACATAA,0.258
15,GCCATATA,0.123
16,AGCGATCC,-0.0782
17,AGCTCCCT,-0.282
18,GCTCTGGA,-0.107
19,CAGGCATG,-0.00473
20,AACGATGT,0.102
21,CAGCGACG,-0.06
22,GCTAGACC,-0.299
23,CATAGAAA,0.22
24,GTTACGTA,0.46
25,ATGCAGGA,-0.153

row,Sequence,PBM E-score
1,CAATTAGA,0.0829
2,CACGTGAC,0.148
3,CCATCGGC,-0.2
4,CTCTTCAC,-0.089
5,AATAATCA,0.209
6,GCTTTTGA,-0.129
7,CATCATGG,0.249
8,AGCTCCAG,-0.228
9,CCGCGATA,-0.0512
10,CATTTTAA,0.208
11,GCACGAGA,0.0175
12,GCCGGTTA,-0.166
13,AGAGCACA,-0.11
14,TACGACCA,-0.021
15,ACCTATAT,0.273
16,AATCGCTC,-0.266
17,CCGGTAGA,-0.132
18,AAGTTATG,0.248
19,ATCTACGA,-0.0544
20,GAAGTATC,0.105
21,ACTGGGAA,0.0525
22,ACGTGAGT,0.0508
23,CAACCAGG,-0.162
24,AAGCTATG,-0.0495
25,TCGCTCCA,-0.06

row,Sequence,PBM E-score
1,GCACAACA,-0.00119
2,ACCACTGC,-0.139
3,AGGACGCA,-0.209
4,CCCCGCGG,-0.0982
5,GGTCGCTA,-0.222
6,GGTTTATA,0.0508
7,GATCGTCA,0.294
8,AAGAGCAG,-0.124
9,ACTCGGAT,0.038
10,AGCCCGAA,-0.192
11,CAAGTCGA,-0.165
12,CGCACGAA,0.0947
13,GACTTCAA,-0.106
14,CCGGTGTC,-0.213
15,ACAGCGTG,0.0197
16,ACTTGGTG,-0.158
17,AGAGAACT,-0.0611
18,GCGGGGCA,-0.174
19,CAGCTTTC,-0.0784
20,AACAGAAG,0.101
21,ACTCAGTA,0.0552
22,GACTCAGC,-0.202
23,CCACAAGC,-0.236
24,CAACGCCG,0.191
25,CCGTGTAA,0.0882

row,Sequence,PBM E-score
1,CTACTCAA,0.182
2,AAGGCACC,0.116
3,ACGTGTCA,0.2
4,GCGGTGAC,0.345
5,TAAGGCCA,-0.146
6,CTACGCGC,-0.0816
7,GCGATTGA,-0.00765
8,ACAGTTCT,-0.0938
9,CGAGCAAG,-0.193
10,TCTGCGAA,-0.107
11,ACAAAACC,0.17
12,GACAGATC,0.00799
13,AACTCCCT,-0.053
14,CATTTATC,0.151
15,ACCTCGGG,-0.254
16,GAGGGTAA,0.0269
17,ACTCAATG,0.17
18,GTTTTATA,0.122
19,ACGATTCT,0.039
20,ACTCCGAG,-0.0087
21,GCATCTAC,0.0667
22,CTGCTCTC,-0.151
